Structures are written as SMILES. Hit rate of the full screen: of about 52,000 compounds, about 1,700 (3.3%) were called active. No stated cut-off is given here; in the data, active means survival mostly below about 52% (no sharp cut-off); inactive means mostly above about 56%. The list shows a part of the results.

Our source for the survival values is PubChem BioAssay AID463173 (ICCB-Longwood Screening Facility, Harvard Medical School, 2010).

The subject of this assay is Wild type. The assay is described as follows: S. aureus survival, RN4220 and DeltatarO strains – OD600, teichoic acid synthesis inhibitors, primary screen (AID 463173). The settings on record: S. aureus RN4220 wild type/DeltatarO growth, OD600, 18 h, hits give low values, screened at 18.75 µg/mL (by protocol).
Regarding `Cc1ccc(-n2cc(-c3ccccc3)c3c(NC4CCCC4)ncnc32)cc1`, the survival was inactive: 64%.

`COc1cc2c(=O)c(S(=O)(=O)c3ccc(F)cc3)cn(Cc3ccccc3C)c2cc1OC`: the survival was inactive: 86%.

As to `CCN(Cc1ccccc1)C(=O)C1CCN(c2ncnc3c2nc2n3CCCCC2)CC1`, the survival was inactive: 57%.

As to `Cc1cccc(N(C)C(=O)CN2C(=O)COc3ccc(S(=O)(=O)N4CCCCCC4)cc32)c1`, the survival is inactive: 95%.

Take `COc1cc(OC)c(OC)cc1CNCCSc1nnnn1-c1ccccc1`: the survival was inactive: 85%.

With `Cn1c(CNC(=O)CSc2n[nH]c(-c3ccccc3Cl)n2)nc2ccccc21`, the survival is inactive: 83%.

In the case of `Cc1cc(Br)ccc1NC(=O)CCS(=O)(=O)c1cccc2nonc12`, the survival is inactive: 95%.

As to `COc1ccc(Cl)cc1NS(=O)(=O)c1cc(-c2cc(C)no2)ccc1C`, the survival was inactive: 82%.

With `CCOC(=O)c1ccc(NC(=O)C2Cc3ccccc3CN2S(=O)(=O)c2ccc(Cl)cc2)cc1` (stereo not drawn), the survival is inactive: 86%.

Take `O=C(NCC(c1cccs1)S(=O)(=O)c1cccs1)c1ccccc1` (stereo not drawn): the survival was inactive: 70%.

Consider `CC(NC(=O)Cn1ncc2c3ccccc3n(Cc3ccc(F)cc3)c2c1=O)c1ccccc1` (stereo not drawn), for which the survival was inactive: 85%.

`CCCCON1C(=O)c2cccc3cccc(c23)C1=O`: the survival is inactive: 116%.

Turning to `CC(=O)c1sc2c(c1C)c(=O)n(-c1ccc(Cl)cc1)c(=O)n2Cc1ccc(Cl)cc1`, the survival was inactive: 81%.

For `Cc1cc(C)c(Cn2c(C)c(CNCCCc3ccccc3)c(C(=O)O)c2C)c(C)c1`, the survival is inactive: 80%.

Take `CCOC(=O)c1c(NC(=O)c2noc3c2CC(C(C)(C)C)CC3)sc2c1CCCC2` (stereo not drawn): the survival is inactive: 88%.

Consider `Cc1ccc(C)c(N2CCN(C(=O)CN3C(=O)COc4ccc(S(=O)(=O)N5CCCCCC5)cc43)CC2)c1`, for which the survival was inactive: 90%.

As for `Cc1cccc(NC(=O)c2cnn(-c3ccccc3)c2-n2cccc2)c1C`, the survival was inactive: 78%.

Regarding `COc1ccc(-c2cc(C(=O)Nc3c(C(=O)c4ccc(Cl)cc4)oc4ccccc34)no2)cc1`, the survival is inactive: 86%.

Turning to `CC(=O)N1CCC(N(Cc2ccco2)C(=O)Nc2cccc(C)c2)CC1`, the survival was inactive: 134%.

Take `CCOC(=O)c1cc2c(=O)n3ccccc3nc2n(CC2CCCO2)c1=NC(=O)c1cccc(C(F)(F)F)c1` (stereo not drawn): the survival was inactive: 119%.

For `CCOC(=O)N1CCN(S(=O)(=O)N2CCCC(C(=O)NCc3cccc(OC)c3)C2)CC1` (stereo not drawn), the survival was inactive: 56%.

As for `CCC1CN(C(=O)N2CCC(C(=O)NCc3ccc(C)o3)CC2)c2cc(C)ccc2O1` (stereo not drawn), the survival was inactive: 90%.

For the compound `Cc1ccc2nc(NCCCNC(=O)c3cnccn3)c(C#N)cc2c1`, the survival is inactive: 109%.

With `CCOC(=O)c1cc2sc(C)cc2n1CC`, the survival was inactive: 116%.

`O=C(NC1CC(=O)N(c2ccc(F)cc2)C1)c1cc2ccccc2o1` (stereo not drawn): the survival was inactive: 146%.

In the case of `CC(=O)N1CCCc2cc(S(=O)(=O)N3CCC(C(=O)NCCC(C)C)CC3)ccc21`, the survival is inactive: 77%.

In the case of `O=C(Nc1c(C(=O)N2CCOCC2)cnn1-c1ccccc1)c1ccccc1F`, the survival was inactive: 104%.

In the case of `CN1CCN(C(c2ccccc2)c2sc3nc(-c4ccco4)nn3c2O)CC1` (stereo not drawn), the survival was inactive: 59%.

On to `COc1ccccc1NC(=O)n1ncc2c(C)cccc21`, for which the survival is inactive: 83%.

For the compound `CCOC(=O)c1nnc2c(-c3ccc(OC)cc3)c(C)nn2c1N`, the survival was inactive: 123%.

As to `CC1CCc2nc(NC(=O)COc3ccc(C(C)(C)C)cc3)sc2C1` (stereo not drawn), the survival was inactive: 93%.

In the case of `O=S(=O)(Nc1cccc(-c2ccc(N3CCCCC3)nn2)c1)c1cccs1`, the survival was inactive: 71%.

As to `COC(=O)C1=C(C)NC2=C(C(=O)c3ccccc32)C1c1cc2c(cc1Cl)OCO2` (stereo not drawn), the survival is inactive: 136%.

Consider `Cc1cccc(CCn2c(=O)c3ccccc3n(Cc3cccc(F)c3)c2=O)c1`, for which the survival was inactive: 82%.

Turning to `COc1ccc(OC)c(C2CC(=O)c3c([nH]c(C(=O)OCC4CCCCC4)c3C)C2)c1` (stereo not drawn), the survival was inactive: 95%.

On to `Cc1csc2nc(COC(=O)COc3ccccc3F)cc(=O)n12`, for which the survival is inactive: 57%.

For `COc1cc2c(cc1OC)-c1n[nH]c(=S)n1C(C)(C)C2`, the survival was inactive: 56%.

For the compound `CC(=O)c1cccc(NC(=O)CCS(=O)(=O)c2cc(Br)cc3c2N(C(=O)C2CC2)CC3)c1`, the survival is inactive: 123%.

As to `CCCC(=O)N1CC(=O)Nc2ccc(Cl)cc2C1c1ccc(F)cc1` (stereo not drawn), the survival was inactive: 75%.

`Cc1ccc2c(=O)c(C(=O)NC3CCCC3)c[nH]c2c1`: the survival was inactive: 106%.

`CCS(=O)(=O)c1ncc(N(Cc2ccco2)Cc2sccc2C)c(C(=O)Nc2cc(C)ccc2C)n1`: the survival was inactive: 121%.

As to `CCCn1c(=O)c2sccc2n2c(CCCC(=O)N3CCN(c4ccccc4)CC3)nnc12`, the survival is inactive: 98%.

On to `NC(=O)CS(=O)(=O)c1ccc(Cl)cc1`, for which the survival is inactive: 105%.

Take `COc1ccc(CCNC(=O)Cn2nnc(-c3ccc(C(F)(F)F)cc3)n2)cc1OC`: the survival is inactive: 77%.

As for `Cn1c(C(=O)NCc2ccc(F)cc2)cc2c(=O)n(C)c3ccccc3c21`, the survival is inactive: 97%.

For `COc1ccc(C(=O)NCCc2sc(-c3cccc(F)c3)nc2C)cc1`, the survival is inactive: 80%.

On to `COCCn1c(SCC(=O)Nc2ccc(F)c(Cl)c2)nc2c(oc3ccccc32)c1=O`, for which the survival is inactive: 44%.

As for `CCCn1c(CCC(=O)O)ccc1-c1ccccc1`, the survival was inactive: 111%.

Turning to `Cc1ccccc1NS(=O)(=O)c1ccc2[nH]cc(C(=O)N3CCCC3)c(=O)c2c1`, the survival is inactive: 99%.

`Cc1nc2ccn(Cc3cccnc3)c(=O)c2cc1C(=O)Nc1ccc(OC(F)(F)F)cc1`: the survival was inactive: 73%.

Take `O=C(Nc1ccccc1C(=O)OCc1cc(=O)n2nc(C3CC3)sc2n1)c1cccc(Cl)c1`: the survival is inactive: 72%.

As for `Cc1sc2ncn(CC(=O)Nc3cccc(C(F)(F)F)c3)c(=O)c2c1S(=O)(=O)N1CCC(C)CC1`, the survival was inactive: 92%.

As for `COc1cccc(C(=O)NC(=O)Nc2ccc(-c3cc(C(F)(F)F)nn3-c3ccccc3)cc2)c1`, the survival was inactive: 140%.

Regarding `CCN1/C(=C/C=C2\SC(=S)N(C)C2=O)Oc2ccccc21`, the survival is inactive: 104%.

For the compound `COc1ccc(C2c3c(-c4ccccc4O)n[nH]c3C(=O)N2Cc2ccco2)cc1` (stereo not drawn), the survival was active: 10%.

On to `CCOC(=O)C1=C(CN2CCN(c3ccccc3)CC2)NC(=O)NC1c1ccc(C)cc1` (stereo not drawn), for which the survival was inactive: 127%.

`Cc1ccc(Cl)cc1NC(=O)Cn1c(=O)c(CNc2ccccc2)cc2cc3c(cc21)OCCO3`: the survival is inactive: 87%.

`CCCCn1c(-c2ccc(S(=O)(=O)N3CCOCC3)cc2)csc1=Nc1ccccc1`: the survival was inactive: 54%.

As to `CCN(c1cccc(C)c1)S(=O)(=O)c1nnc(NC(=O)c2cccs2)s1`, the survival is inactive: 26%.

In the case of `Cc1c(C(=O)Nc2ccccc2Br)oc2ccc(S(=O)(=O)N3CCCCC3)cc12`, the survival was inactive: 71%.

For the compound `Cc1ccc(CSCC(=O)N2CCN(Cc3ccc4c(c3)OCO4)CC2)cc1`, the survival was inactive: 106%.

In the case of `COc1ccc(-c2c(C)nn3c4c(cnc23)C(=O)CC(c2ccc(C)cc2)C4)cc1` (stereo not drawn), the survival is inactive: 141%.

Consider `O=C(CCCSc1nc(-c2ccco2)cc(C(F)(F)F)n1)NC1CCCCC1`, for which the survival is inactive: 113%.

For `Cc1cccc(Cn2c(CN3CCC(C(=O)NCCc4ccccc4)CC3)cc3ccccc32)c1`, the survival is inactive: 128%.

Turning to `COc1ccc(C(=O)Nc2cc(C(F)(F)F)ccc2N2CCN(c3ccccc3)CC2)cc1OC`, the survival was inactive: 73%.

Turning to `CCC(=O)Nc1nnc(S(=O)(=O)N(C)Cc2ccccc2)s1`, the survival was inactive: 86%.

Consider `CCOc1ccccc1NC(=O)c1cccc2c1C(=O)N(C1CCCCC1)C2`, for which the survival is inactive: 80%.

For the compound `COc1cccc(NC(=O)Cn2c(=O)n(-c3ccc(CC(=O)NCC4CCCO4)cc3)c(=O)c3ccccc32)c1` (stereo not drawn), the survival is inactive: 103%.

`CCOc1ccc(C(=O)OCc2cc(=O)n3nc(C4CCCCC4)sc3n2)cc1`: the survival is inactive: 67%.

With `CSc1ncc(Cl)c(C(=O)N(Cc2ccccc2Cl)C2CCS(=O)(=O)C2)n1` (stereo not drawn), the survival was inactive: 113%.

As to `Cc1cc(C)cc(NC(=O)NCCn2nnc3cc(S(=O)(=O)N(C)C)ccc32)c1`, the survival is inactive: 111%.

In the case of `CC1Cc2ccccc2N1C(=O)CSc1nnc(-c2ccccc2)o1` (stereo not drawn), the survival is inactive: 98%.

Take `Cc1ccc(C)c(NC(=O)CSc2cn(CC(=O)N3CCCC3)c3ccccc23)c1`: the survival is inactive: 101%.

As for `CCCN1C(=O)C(NC(=O)c2ccccc2OC)(C(F)(F)F)C(C(=O)OC)=C1C` (stereo not drawn), the survival was inactive: 78%.

In the case of `O=C(NCC1CCCCC1)C1CCCN1C(=O)NC1CCCCC1` (stereo not drawn), the survival was inactive: 106%.

For the compound `CCOc1ccccc1C1C(C(=O)Nc2ccccc2OC)=C(C)Nc2nc3ccccc3n21` (stereo not drawn), the survival was inactive: 68%.

Turning to `Cc1ccc2nc(NC(=O)c3cc(=O)c4cc(C)c(C)cc4o3)sc2c1`, the survival is inactive: 78%.

Consider `CCOc1ccc(NC(=O)Cc2csc(COc3cccc(C)c3)n2)cc1`, for which the survival is inactive: 91%.

`CSc1ccc(CNC(=O)CCn2ccc3cc(S(=O)(=O)N4CCCC4)ccc32)cc1`: the survival was inactive: 73%.

Turning to `O=c1[nH]c(=O)n(CCC2=CCCCC2)c(O)c1/C=C1/C=CC=N1`, the survival was inactive: 107%.

Regarding `COc1ccccc1CNC(=O)c1ccc(C)c(-n2cnc3cccnc32)c1`, the survival was inactive: 68%.

`C=CCn1c(=O)/c(=C2/Sc3ccccc3N2CC)s/c1=C1/C(=O)NN=C1C`: the survival is inactive: 70%.

As for `CCc1nnc2c3ccccc3nc(N3CCN(c4ccc(C)cc4C)CC3)n12`, the survival is inactive: 74%.

As for `CCOc1ccc(NC(=O)Cn2c(C)ccc(C#N)c2=O)cc1`, the survival was inactive: 140%.

For `O=C(NCCc1csc(-c2cccnc2)n1)c1cccc(C(F)(F)F)c1`, the survival was inactive: 73%.

As to `COc1ccc(CN2C(=O)C(NC(=O)c3ccc(C)cc3)(C(F)(F)F)N=C2c2ccccc2)cc1` (stereo not drawn), the survival is inactive: 79%.

Regarding `COc1ccc(-c2nn(C)c3sc(C(=O)N4CCN(c5cccc(C)c5C)CC4)cc23)cc1OC`, the survival is inactive: 77%.

As to `COc1ccc(C(=O)N/N=C2/SCC(=O)N2C)c(OC)c1`, the survival was inactive: 104%.
